Whole data set: some 33,000 sequences, median “E-score (-0.5 to 0.5)” near -0.016, cut for the highest 2% near 0.31. The list shows a part of the results.

This assay addresses Cst6 (UniProt P40535). Nature of the assay: PBM E-score (8-mer binding enrichment) (E-score (-0.5 to 0.5)); higher = stronger / more preferred TF binding; most listed sequences are background and not binding sites. The settings on record: protein concentration: 200 nM; construct: GST-DNA-binding domain. As for the experimental part:
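Universal 'all 10-mer' protein binding microarrays (Agilent AMADID 015681) probed with GST-tagged S. cerevisiae TFs (full-length or DBD) made by in vitro transcription/translation (PURExpress), about 100-200 nM. Bound TF was detected with fluorescent anti-GST. Each ungapped 8-mer (which stands for itself and its reverse complement) is scored by the PBM enrichment score (E-score), a modified Wilcoxon-Mann-Whitney statistic from -0.5 to +0.5, computed with the Universal PBM Analysis Suite. Scale: above 0.35 generally sequence-specific binding.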
Consider AGCTCGAG, for which the “PBM E-score” value is -0.225.

With GAATTTCC, the “PBM E-score” value was 0.0654.

Regarding ATCAGGCC, the “PBM E-score” value was -0.0722.

With GAGCGCAC, the “PBM E-score” value is -0.219.

GTCATATA: the “PBM E-score” value was determined as 0.377.

Consider AAGTCGGA, for which the “PBM E-score” value is -0.114.

For the sequence AATCAGAT, the “PBM E-score” value came out at 0.121.

With TGCCGCCA, the “PBM E-score” value was -0.0805.

Turning to GAAGGAAC, the “PBM E-score” value is -0.16.

For CTCTCGAA, the “PBM E-score” value is -0.0781.

On to GTGAACTA, for which the “PBM E-score” value was 0.106.

As for CGGAAGAG, the “PBM E-score” value was -0.156.

Regarding GGATATGA, the “PBM E-score” value was 0.0499.

As to ACAAACTC, the “PBM E-score” value came to 0.0955.

As to AAAAATAC, the “PBM E-score” value amounted to 0.223.

Take ACCTACGG: the “PBM E-score” value was -0.224.

Consider GCGGACAA, for which the “PBM E-score” value is 0.0964.

As to AAGAGTTG, the “PBM E-score” value was -0.00769.

AGTATGCA: the “PBM E-score” value is -0.0835.

With CACTCGAA, the “PBM E-score” value was 0.0172.

For CTCTACCA, the “PBM E-score” value was -0.154.

For AGTAGTGA, the “PBM E-score” value was determined as 0.177.

On to AGAGGGAT, for which the “PBM E-score” value is -0.219.

Turning to AGGGAGGG, the “PBM E-score” value is -0.282.

Turning to GGCTATCA, the “PBM E-score” value came out at 0.0107.

On to CACCCGGC, for which the “PBM E-score” value is -0.252.

In the case of GTCCGGAC, the “PBM E-score” value worked out at 0.00319.

Take CTCGCCAG: the “PBM E-score” value was -0.203.

On to GTTCCAAC, for which the “PBM E-score” value worked out at 0.106.

For the sequence ACTCGCTG, the “PBM E-score” value was -0.143.

Regarding ACCTCAGG, the “PBM E-score” value was -0.184.

In the case of ACCAATCG, the “PBM E-score” value was -0.0755.

Regarding AGAATGAC, the “PBM E-score” value came to 0.354.

As for CAGAGGCG, the “PBM E-score” value was -0.0136.

As to AAGTGAAT, the “PBM E-score” value came out at 0.207.

For the sequence CAGTCTTC, the “PBM E-score” value was -0.245.

As to TAGTTACA, the “PBM E-score” value was determined as 0.0807.

Take ATCTAATA: the “PBM E-score” value stood at 0.228.

For CCCCATCA, the “PBM E-score” value was -0.129.

In the case of CAGCTATC, the “PBM E-score” value is -0.2.

Take ACTAGACA: the “PBM E-score” value stood at 0.166.

For CGTAGATC, the “PBM E-score” value came out at 0.143.

On to TATTGTGA, for which the “PBM E-score” value stood at 0.149.

As for AGCTTCGC, the “PBM E-score” value was -0.134.

Take CGTCCTAG: the “PBM E-score” value was -0.197.

As to AAAGACTA, the “PBM E-score” value is -0.0453.

For CAAGGGAG, the “PBM E-score” value was -0.266.

On to AAGCCGGT, for which the “PBM E-score” value is -0.0995.

With GCGGGAGC, the “PBM E-score” value was -0.313.

For the sequence ATCCCCAT, the “PBM E-score” value turned out to be 0.00935.

With ATGTATGC, the “PBM E-score” value came to 0.232.

As for CCGTACGC, the “PBM E-score” value worked out at 0.12.

With AATCCTAT, the “PBM E-score” value came to 0.0106.

For the sequence CCAGGTTC, the “PBM E-score” value is -0.342.

On to CCATCAGC, for which the “PBM E-score” value is -0.113.

For CCCAATCC, the “PBM E-score” value is -0.262.

On to GGAGACAA, for which the “PBM E-score” value is 0.00059.

For the sequence CTTTCCTC, the “PBM E-score” value was -0.144.

As to GCGACCCA, the “PBM E-score” value is -0.283.

As to CCCCCCGC, the “PBM E-score” value is -0.306.

Consider GGCAGGCC, for which the “PBM E-score” value is -0.332.

Take GCTGTGCA: the “PBM E-score” value was -0.176.

As for CAAAGGTG, the “PBM E-score” value was -0.0715.

With GGCCAGCA, the “PBM E-score” value is -0.245.

In the case of ATGCAGCG, the “PBM E-score” value was -0.0614.

Turning to AAAACGAC, the “PBM E-score” value was -0.0836.

In the case of AGAATAGG, the “PBM E-score” value is 0.0888.

In the case of AGAGGATA, the “PBM E-score” value was -0.0686.

With AGTGGTAC, the “PBM E-score” value was -0.204.

In the case of ATGATCCG, the “PBM E-score” value is 0.0651.

Regarding CCTGCCAG, the “PBM E-score” value was -0.275.

Consider ACGTTCCG, for which the “PBM E-score” value is -0.177.

In the case of GTTCCGGA, the “PBM E-score” value is -0.223.

Regarding ACGGGGAT, the “PBM E-score” value is -0.182.

AACGAATA: the “PBM E-score” value is -0.0884.

Regarding CACCCTCG, the “PBM E-score” value is -0.0792.

Turning to GCAGTAGC, the “PBM E-score” value was -0.307.

Consider TTGGAAAA, for which the “PBM E-score” value stood at 0.145.

Turning to AGGCAATA, the “PBM E-score” value is 0.0144.

For CTTGGGTC, the “PBM E-score” value is -0.295.

On to GAGGTCCA, for which the “PBM E-score” value was -0.231.

As to CAAACTGG, the “PBM E-score” value was -0.234.

In the case of ACGCGAGC, the “PBM E-score” value is -0.00439.

As for AGCTGTTG, the “PBM E-score” value is 0.135.

Turning to TCGAGTAA, the “PBM E-score” value stood at 0.214.

Regarding ATGAGAAG, the “PBM E-score” value came out at 0.00938.

In the case of AGGCGCCT, the “PBM E-score” value stood at 0.207.

As for CCACATGG, the “PBM E-score” value was -0.126.

For the sequence CACGTGTA, the “PBM E-score” value was 0.099.

For GACATCTA, the “PBM E-score” value stood at 0.0419.

Turning to AGGAGAAG, the “PBM E-score” value is -0.154.

With CTTGTCAA, the “PBM E-score” value is 0.046.

AATAATAT: the “PBM E-score” value was found to be 0.305.

AGCCATTC: the “PBM E-score” value is -0.0981.

AGTACGAC: the “PBM E-score” value was -0.0317.

In the case of CTAGGGAC, the “PBM E-score” value is -0.189.

Turning to CAGCCATA, the “PBM E-score” value was -0.131.

Take GTGTCTCA: the “PBM E-score” value is -0.0562.

In the case of CACAGAAC, the “PBM E-score” value is -0.102.

On to AAGTCTGA, for which the “PBM E-score” value is -0.085.

CGAGGCCG: the “PBM E-score” value is -0.182.

On to ACCACGCC, for which the “PBM E-score” value was -0.128.

Regarding GCCTACGA, the “PBM E-score” value was -0.0168.

As for TCGACCGA, the “PBM E-score” value was -0.144.

With GTATCGTA, the “PBM E-score” value was 0.133.

With CGAATAAG, the “PBM E-score” value is -0.097.

As for CAACACGA, the “PBM E-score” value is 0.0554.

Take CAAGTCCA: the “PBM E-score” value is -0.255.

AACGCAAG: the “PBM E-score” value was 0.00296.

In the case of CGGCCCGA, the “PBM E-score” value was -0.1.

The record behind these values is the supplement of paper PMC3334620.
